According to the antibiotic and cytotoxicity screens of Wong et al. (2023):
This is one part of the list.

Assays:
HSkMC = human skeletal muscle cells; assay: cytotoxicity call (relative viability < 0.9); details: 10 µM
HepG2 = assay: cytotoxicity call (relative viability < 0.9); details: 10 µM
S. aureus RN4220 = assay: growth inhibition call (relative growth <= 0.2); details: 50 µM

| SMILES | cytotoxicity call (HSkMC) | cytotoxicity call (HepG2) | growth inhibition call (S. aureus RN4220) |
| --- | --- | --- | --- |
| C[C@H]1CN([C@@H](C)CO)C(=O)CCCn2nncc2CO[C@H]1CN(C)C(=O)Nc1ccnc(N2CCOCC2)c1 | inactive | inactive | inactive |
| C[C@@H]1CCCCO[C@@H](CN(C)C(=O)CCCN(C)C)[C@H](C)CN([C@H](C)CO)C(=O)c2cc(N(C)C)ccc2O1 | inactive | inactive | inactive |
| COc1ccc(S(=O)(=O)N(C)C[C@H]2Oc3c(NS(C)(=O)=O)cccc3C(=O)N([C@@H](C)CO)C[C@@H]2C)cc1 | inactive | inactive | inactive |
| C[C@H](CO)N1C[C@H](C)[C@@H](CN(C)CC2CC2)Oc2ccc(NS(=O)(=O)c3ccc(F)cc3)cc2C1=O | inactive | inactive | inactive |
| Cc1noc(C)c1NC(=O)N(C)C[C@@H]1OCCCC[C@H](C)Oc2ccc(NC(=O)Nc3ccccc3)cc2C(=O)N([C@H](C)CO)C[C@@H]1C | inactive | inactive | inactive |
| O=C1CCC(=O)N1c1nccs1 | inactive | active | inactive |
| Cc1noc(C)c1S(=O)(=O)Nc1ccc2c(c1)CC(=O)N([C@H](C)CO)C[C@@H](C)[C@@H](CN(C)S(=O)(=O)c1cn(C)cn1)O2 | inactive | inactive | inactive |
| C[C@H]1CN([C@@H](C)CO)S(=O)(=O)c2ccc(C#Cc3ccccc3F)cc2O[C@@H]1CN(C)C(=O)Cc1ccncc1 | inactive | inactive | inactive |
| C[C@H]1CN([C@@H](C)CO)S(=O)(=O)c2ccc(-c3ccccc3F)cc2O[C@@H]1CN(C)Cc1cncnc1 | inactive | inactive | inactive |
| COc1ccc(-c2cnc3c(c2)C(=O)N([C@H](C)CO)C[C@H](C)[C@H](CN(C)C(=O)Cc2ccccn2)O3)cc1 | inactive | inactive | inactive |
| CSCC[C@H](NC(=O)[C@H](Cc1ccc(OS(=O)(=O)O)cc1)NC(=O)[C@@H](N)CC(=O)O)C(=O)NCC(=O)N[C@@H](Cc1c[nH]c2ccccc12)C(=O)N[C@@H](CCSC)C(=O)N[C@@H](CC(=O)O)C(=O)N[C@@H](Cc1ccccc1)C(N)=O | active | active | inactive |
| Cc1csc2c(N3CCC(Cn4cc(C(C)(C)N)nn4)CC3)ncnc12 | inactive | inactive | inactive |
| Cc1noc(C)c1NC(=O)Nc1ccc2c(c1)CC(=O)N([C@@H](C)CO)C[C@H](C)[C@@H](CN(C)Cc1ccc(Oc3ccccc3)cc1)O2 | inactive | inactive | inactive |
| NNC(=O)Oc1ccccc1 | inactive | inactive | inactive |
| O=C(CN1CCOCC1)NCC[C@@H]1CC[C@H](NC(=O)Nc2ccccc2)[C@H](CO)O1 | inactive | inactive | inactive |
| Cc1ccc(S(=O)(=O)Nc2ccc3c(c2)C(=O)N([C@H](C)CO)C[C@H](C)[C@H](CN(C)S(=O)(=O)c2ccc(C)cc2)OCCCC[C@H](C)O3)cc1 | inactive | inactive | inactive |
| NCc1ccccc1 | inactive | inactive | inactive |
| C[C@H](CO)N1C[C@H](C)[C@@H](CN(C)C(=O)Nc2ccc3c(c2)OCO3)OCCCC[C@H](C)Oc2ccc(NC(=O)Nc3ccc(F)cc3)cc2C1=O | inactive | inactive | inactive |
| CN(C)CC(=O)N1[C@@H](CO)[C@@H](c2ccc(C3=CCCC3)cc2)C12CN(S(=O)(=O)Cc1ccccc1)C2 | inactive | inactive | inactive |
| C[C@@H]1CN([C@@H](C)CO)C(=O)c2cccc(NC(=O)NC3CCCCC3)c2O[C@H]1CN(C)Cc1ccc(-c2ccccc2)cc1 | inactive | inactive | inactive |
| C[C@H]1CN([C@@H](C)CO)C(=O)c2cc(NC(=O)Nc3ccc(C(F)(F)F)cc3)ccc2O[C@@H]1CN(C)Cc1ccc2c(c1)OCO2 | active | active | inactive |
| C[C@H](C(=O)O)[C@H]1SC(=O)NC1=O | inactive | inactive | inactive |
| Cc1noc(C)c1NC(=O)Nc1ccc2c(c1)C(=O)N([C@@H](C)CO)C[C@@H](C)[C@@H](CN(C)CC1CCCCC1)OCCCC[C@@H](C)O2 | inactive | inactive | inactive |
| C[C@H](CO)N1C[C@H](C)[C@@H](CN(C)S(=O)(=O)c2ccc(F)cc2)OCCCC[C@H](C)Oc2ccc(NC(=O)C3CCCCC3)cc2C1=O | inactive | inactive | inactive |
| COCC(=O)Nc1ccc2c(c1)C(=O)N(C)C[C@@H](OC)[C@H](C)CN(C(=O)CN1CCOCC1)[C@H](C)CO2 | inactive | inactive | inactive |
| CCCC12CN3CC(CCC)(CN(C1)C3[C@@H](O)[C@@H](O)[C@@H](O)CO)C2=O (some centres not stated) | inactive | inactive | inactive |
| C[C@H](CO)N1C[C@H](C)[C@@H](CN(C)C(=O)c2ccc3c(c2)OCO3)Oc2cc(C#Cc3ccccc3F)ccc2S1(=O)=O | inactive | inactive | inactive |

| SMILES | cytotoxicity call (HSkMC) | cytotoxicity call (HepG2) | growth inhibition call (S. aureus RN4220) |
| --- | --- | --- | --- |
| Cn1cnc(S(=O)(=O)N2C[C@H](O)COC[C@@H]3O[C@H](CC(=O)NCc4cccc(F)c4)CC[C@H]32)c1 | inactive | inactive | inactive |
| C[C@@H]1CN([C@H](C)CO)C(=O)c2cc(NC(=O)C3CCCCC3)ccc2O[C@@H](C)CCCCO[C@@H]1CN(C)Cc1ccccc1 | inactive | inactive | inactive |
| Cc1ccc(S(=O)(=O)Nc2ccc3c(c2)C(=O)N([C@@H](C)CO)C[C@H](C)[C@H](CN(C)C(=O)Nc2c(C)noc2C)OCCCC[C@@H](C)O3)cc1 | inactive | inactive | inactive |
| C[C@H]1CN([C@@H](C)CO)C(=O)c2cc(NC(=O)Cn3cnnn3)ccc2O[C@H]1CN(C)CC1CC1 | inactive | inactive | inactive |
| CC(C)NC(=O)Nc1ccc2c(c1)C(=O)N([C@H](C)CO)C[C@@H](C)[C@H](CN(C)Cc1ccc(C(F)(F)F)cc1)OCCCC[C@H](C)O2 | inactive | active | inactive |
| C[C@@H]1CN([C@@H](C)CO)C(=O)c2cc(NS(=O)(=O)c3cn(C)cn3)ccc2O[C@@H](C)CCCCO[C@@H]1CN(C)C | inactive | inactive | inactive |
| Cc1ccc(S(=O)(=O)N(C)C[C@@H]2OCCCC[C@H](C)Oc3ccc(NC(=O)CCC(F)(F)F)cc3C(=O)N([C@@H](C)CO)C[C@@H]2C)cc1 | inactive | active | inactive |
| CC(C)C[C@@H]1NC(=O)[C@H]2C[C@@H](C(=O)NCCCCCCNC(=O)CS)[C@@H](c3cccc(OCCO)c3)N2C1=O | inactive | inactive | inactive |
| C[C@@H]1CN([C@@H](C)CO)C(=O)Cc2cc(NC(=O)Nc3ccccc3)ccc2O[C@H]1CN(C)Cc1ccc(C(=O)Nc2ccccc2N)cc1 | inactive | inactive | inactive |
| COc1cc(Cc2cnc(N)nc2N)cc(OC)c1OC | inactive | inactive | active |
| C[C@@H]1CN([C@@H](C)CO)C(=O)c2cc(NC(=O)Nc3cccc4ccccc34)ccc2O[C@H]1CN(C)Cc1ccc(Oc2ccccc2)cc1 | inactive | inactive | inactive |
| C[C@@H]1CN([C@@H](C)CO)C(=O)c2cc(NC(=O)CCN3CCOCC3)ccc2O[C@@H]1CN(C)Cc1ccc(C(=O)O)cc1 | inactive | inactive | inactive |
| CN1C(=O)c2cc(NC(=O)c3ccc(F)c(F)c3)ccc2OC[C@H]2O[C@H](CC(=O)N3CCOCC3)CC[C@@H]21 | inactive | inactive | inactive |
| CCS(=O)(=O)Nc1ccc2c(c1)C(=O)N(C)[C@@H]1CC[C@H](CC(=O)N[C@@H]3CCN(Cc4ccccc4)C3)O[C@@H]1CO2 | inactive | inactive | inactive |
| C[C@@H]1CCCCO[C@H](CN(C)C(=O)C2CCCCC2)[C@H](C)CN([C@H](C)CO)C(=O)c2cc(NC(=O)C3CCCCC3)ccc2O1 | inactive | inactive | inactive |
| Cc1noc(C)c1S(=O)(=O)Nc1ccc2c(c1)CC(=O)N([C@H](C)CO)C[C@H](C)[C@@H](CN(C)S(=O)(=O)c1cn(C)cn1)O2 | inactive | inactive | inactive |
| C[C@@H]1CN([C@H](C)CO)C(=O)c2cccc(NS(=O)(=O)c3cn(C)cn3)c2O[C@@H]1CN(C)CC1CCCCC1 | inactive | inactive | inactive |
| COc1ccc([Si](C)(C)[C@H]2[C@H](CC(=O)N3Cc4ccccc4C[C@H]3CO)O[C@@]3(C(=O)N(Cc4cccc(N5C(=O)c6cccc7cccc5c67)c4)c4ccccc43)[C@@H]2C)cc1 | inactive | active | inactive |
| COc1ccc(S(=O)(=O)Nc2cccc3c2O[C@H](CN(C)Cc2ccncc2)[C@@H](C)CN([C@H](C)CO)C3=O)cc1 | inactive | inactive | inactive |
| C[C@H]1CN([C@@H](C)CO)C(=O)Cc2cc(NS(C)(=O)=O)ccc2O[C@@H]1CN(C)S(=O)(=O)c1ccc(F)cc1 | inactive | inactive | inactive |
| COc1ccccc1C#Cc1cnc2c(c1)C(=O)N([C@@H](C)CO)C[C@H](C)[C@@H](CN(C)C(=O)c1ccc3c(c1)OCO3)O2 | inactive | inactive | inactive |
| COCC(=O)N(C)C[C@@H]1Oc2cc(C#C[C@H](C)O)ccc2S(=O)(=O)N([C@@H](C)CO)C[C@H]1C | inactive | inactive | inactive |
| C[C@H]1CCCCO[C@@H](CN(C)Cc2ccccc2)[C@@H](C)CN([C@@H](C)CO)C(=O)c2cc(NC(=O)Nc3ccc(F)cc3)ccc2O1 | active | active | inactive |
| COc1oc(C(=O)NC2CCCCC2)c(-c2ccc(Cl)cc2)c1S(=O)(=O)c1ccc(C(F)(F)F)cc1[N+](=O)[O-] | inactive | inactive | inactive |
| COc1ccc(CCN(C)CCCOc2ccc(S(=O)(=O)c3[nH]c4ccccc4c3C(C)C)cc2)cc1OC | active | active | inactive |
| CC(=CCO)CCC(C)CCCC(C)CCCC(C)C (configuration not stated) | active | inactive | inactive |
| C[C@@H]1CCCCO[C@H](CN(C)C(=O)Nc2ccc3c(c2)OCO3)[C@H](C)CN([C@@H](C)CO)C(=O)c2cc(NC(=O)Nc3cccc4ccccc34)ccc2O1 | inactive | inactive | inactive |
